Test results taken from the supplement of paper PMC10441789.
Some of the results follow. Antibody binding of pooled human sera (four to six donors per pool; dilution not stated) to peptides of the Trypanosoma cruzi antigen TSSA on microarrays. Quantile-normalised fluorescence in arbitrary units, mean of duplicate arrays; higher = more binding. No active / inactive call. The uninfected pools are read here as the healthy donors of the same country. The strongest signals lie near the top of the scale (about 60,000).

Experiments:
Assay in all cases: antibody binding signal (normalised fluorescence) (arbitrary fluorescence units); higher = stronger serum antibody binding to peptide
[1] = tested on: pooled sera of chronic Chagas disease patients, Bolivia
Experimental: (§1)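 Microarray of 15-residue peptides over residues 30-55 of Trypanosoma cruzi TSSAII, each with 1 to 10 substitutions at naturally variable positions, probed with one serum pool per country.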

[2] = tested on: pooled sera of chronic Chagas disease patients, Brazil
Experimental: as §1

[3] = tested on: pooled sera of chronic Chagas disease patients, Colombia
Experimental: as §1

[4] = tested on: pooled sera of chronic Chagas disease patients, Mexico
Experimental: as §1

[5] = tested on: pooled sera of chronic Chagas disease patients, USA
Experimental: as §1

[6] = tested on: pooled sera of uninfected people, Argentina
Experimental: as §1

[7] = tested on: pooled sera of uninfected people, Bolivia
Experimental: as §1

[8] = tested on: pooled sera of uninfected people, Brazil
Experimental: as §1

[9] = tested on: pooled sera of uninfected people, Colombia
Experimental: as §1

[10] = tested on: pooled sera of uninfected people, Mexico
Experimental: as §1

[11] = tested on: pooled sera of uninfected people, USA
Experimental: as §1

| Sequence | antibody binding signal [1] | antibody binding signal [2] | antibody binding signal [3] | antibody binding signal [4] | antibody binding signal [5] | antibody binding signal [6] | antibody binding signal [7] | antibody binding signal [8] | antibody binding signal [9] | antibody binding signal [10] | antibody binding signal [11] |
| --- | --- | --- | --- | --- | --- | --- | --- | --- | --- | --- | --- |
| GKEKKAAAGGAPSPS | 180 | 240 | 3100 | 1810 | 1410 | 125 | 87.2 | 102 | 132 | 104 | 97.6 |
| GTENKAATGEAPSQP | 44800 | 45800 | 876 | 1080 | 30200 | 245 | 307 | 216 | 120 | 118 | 98.1 |
| ENKPATGEAPSPSGA | 48200 | 51800 | 276 | 498 | 40200 | 1020 | 577 | 277 | 114 | 173 | 192 |
| GTDKKAATGETPSPS | 1710 | 10700 | 2420 | 598 | 11200 | 499 | 311 | 226 | 524 | 536 | 2610 |
| PPSGTENKTAAGGTP | 40100 | 45300 | 3190 | 8210 | 11900 | 1650 | 658 | 1490 | 623 | 2390 | 658 |
| SGTDNKAAAGEAPSP | 809 | 43500 | 395 | 158 | 11600 | 105 | 681 | 1260 | 121 | 109 | 170 |
| KDNKTAAGEAPSQPG | 6820 | 34900 | 1980 | 240 | 6040 | 479 | 220 | 184 | 255 | 94.6 | 161 |
| STPPSGKENKTAAGE | 30100 | 13300 | 374 | 4810 | 3550 | 2040 | 1670 | 219 | 1090 | 274 | 301 |
| GTDNKAAAGEAPSQS | 20300 | 37600 | 225 | 303 | 12400 | 86.6 | 610 | 1360 | 68.3 | 121 | 105 |
| SGTEKKAATGEAPSP | 36500 | 36100 | 273 | 413 | 25700 | 533 | 324 | 384 | 664 | 143 | 172 |
| GKEKKTATGEAPSPS | 4150 | 5040 | 2770 | 3230 | 15100 | 168 | 84.5 | 91.1 | 73.6 | 73 | 95 |
| GTDKKTAAGGTPSQP | 230 | 365 | 12300 | 469 | 1960 | 366 | 191 | 606 | 457 | 908 | 112 |
| STPPSGKEKKAAAGE | 867 | 845 | 893 | 17600 | 1200 | 530 | 625 | 98.7 | 440 | 90.3 | 170 |
| SGKDNKPAAGGTPSQ | 312 | 5030 | 1800 | 1070 | 1100 | 363 | 546 | 606 | 746 | 252 | 125 |
| PPSGKDKKTATGGTP | 350 | 473 | 1210 | 27900 | 1920 | 204 | 286 | 115 | 202 | 105 | 99.4 |
| TDKKPAAGGTPSQPG | 201 | 772 | 6030 | 262 | 926 | 165 | 838 | 1690 | 269 | 359 | 213 |
| TDNKPAAGEAPSQSG | 17500 | 30500 | 367 | 196 | 16100 | 65.9 | 384 | 163 | 103 | 302 | 82.7 |
| KDNKPAAGGAPSPPG | 183 | 1520 | 1000 | 133 | 725 | 274 | 235 | 161 | 165 | 146 | 137 |
| TDKKPATGGTPSPPG | 858 | 698 | 3060 | 829 | 452 | 162 | 793 | 1350 | 661 | 176 | 138 |
| KKAAAGGAPSPPGAS | 219 | 176 | 2130 | 310 | 559 | 242 | 167 | 134 | 110 | 80.2 | 200 |
| TEKKPATGGTPSPPG | 839 | 509 | 3430 | 957 | 2000 | 314 | 496 | 1200 | 390 | 260 | 783 |
| KKAAAGGAPSPSGAS | 234 | 335 | 2980 | 372 | 415 | 206 | 107 | 121 | 121 | 94.4 | 227 |
| NKPAAGGTPSPSGAS | 515 | 4760 | 2040 | 606 | 320 | 609 | 1120 | 1660 | 784 | 211 | 1380 |
| TENKTATGGTPSPSG | 1270 | 551 | 381 | 423 | 821 | 254 | 171 | 437 | 583 | 514 | 202 |
| GKEKKAAAGETPSQP | 350 | 18100 | 4080 | 5950 | 5790 | 198 | 103 | 99.5 | 135 | 74.7 | 126 |
